These results are taken from FireProtDB (doi:10.1021/bi002364+).

For this series the following is noted: Homo sapiens, 25 °C, Urea, phosphate 10 mM, NaCl 100 mM, reversible: yes.

As for “Fibroblast growth factor 2 wild type (sequence not shown)”, the “denaturant midpoint (higher = more stable)” value (“denaturant midpoint” for short) is, setting by setting: (pH 4, CD) 0.1 M; (pH 4, Fluorescence) 0.15 M; (pH 4.5, CD) 0.38 M; (pH 4.5, Fluorescence) 0.39 M; (pH 5, CD) 0.85 M; (pH 5, Fluorescence) 0.92 M. Besides, the “denaturant midpoint” value by setting is: (pH 5.5, Fluorescence) 1.12 M; (pH 6, CD) 1.35 M; (pH 6, Fluorescence) 1.68 M; (pH 6.5, Fluorescence) 1.48 M; (pH 7, CD) 1.98 M; (pH 7, Fluorescence) 1.98 M. For the same substance, the “denaturant midpoint” value (pH 8, CD) was 1.65 M; the “denaturant midpoint” value (pH 8, Fluorescence) turned out to be 1.67 M; the “denaturant midpoint” value (pH 8.5, Fluorescence) was determined as 1.77 M; the “denaturant midpoint” value (pH 9, CD) is 0.72 M; the “denaturant midpoint” value (pH 9, Fluorescence) came out at 1.21 M.
